These results are taken from paper PMC12040169 (PLOS Biology, 2025).

Some of the results follow.

This experiment relates to T1, C. trachomatis L2/434/Bu expressing GFP (CTL2-GFP).
T1 construct: L2/434/Bu GFP intracellular growth in HeLa cells
Further details: species or system HeLa; C. trachomatis total inclusion area by high-content imaging, normalised to DMSO. The settings on record: total inclusion area; 28.5 h, 10 µM; inhibitor. Put shortly: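 High-content images of fixed, Hoechst-stained infected cultures supply inclusion area and count (growth) plus nuclei number (viability), complementing bulk GFP/resorufin fluorescence. MIC determination is unchanged from the primary assay.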
Take `O=C(O)CSc1ccc(Oc2ccc(SCC(=O)O)cc2)cc1` [CBK261254]: the “% of control remaining” value is on record as 101.591.

For `COc1ccc2c(c1OC)C(=O)N(c1cccc(/C=C/C(=O)O)c1)C2` [CBK109932], the “% of control remaining” value is given as 87.7998.

As for `c1ccc(CCN2CCC(N3CCOCC3)CC2)cc1` [CBK261928], the “% of control remaining” value turned out to be 102.23.

Take `CCOc1ccc2ccccc2c1CNCCc1ccc(S(N)(=O)=O)cc1` [CBK268732C]: the “% of control remaining” value was found to be 88.5992.

Regarding `O=C(c1ccc(C#CC2(O)CCCCC2)cc1)N1CCN(Cc2ccccc2)CC1` [CBK263094], the “% of control remaining” value is 90.2473.

For the compound `N#Cc1ccc(CN2CCC(NC3CCCn4nccc43)C2=O)cc1` (stereo not shown) [CBK304770], the “% of control remaining” value was found to be 111.896.

Consider `O=C(O)CC(NS(=O)(=O)c1cccc([N+](=O)[O-])c1)c1ccccc1` (stereo not shown) [CBK262641], for which the “% of control remaining” value came to 105.897.

Take `COc1c(Br)cc(/C=C2\SC(=O)NC2=O)cc1Br` [CBK102455]: the “% of control remaining” value came out at 98.3136.

On to `CC1CCCC(C)N1CC(O)COc1ccc(/N=C/c2ccccc2O)cc1` (stereo not shown) [CBK261748], for which the “% of control remaining” value was 99.0136.

As to `CN(C)C(=O)CCCN1C(=O)CC2(C1=O)C(=O)N(C)c1ccc(F)cc12` (stereo not shown) [CBK075380], the “% of control remaining” value stood at 80.303.

Regarding `CC(C)(C)OC(=O)N1CCC(CNCc2cc(F)cc(F)c2)CC1` [CBK056715], the “% of control remaining” value came out at 88.4768.

On to `COc1ccc(C(NC(=O)c2ccc(Cn3cncn3)cc2)c2ccccc2)cc1` (stereo not shown) [CBK285749], for which the “% of control remaining” value is 89.0165.

Consider `Cc1cc(Cl)ccc1OC(C)C(=O)Nc1cc(C(=O)O)cc(C(=O)O)c1` (stereo not shown) [CBK266483], for which the “% of control remaining” value is reported as 138.606.

As to `c1ccc(Nc2nc(-c3ccc4c(c3)OCO4)cn3ccnc23)cc1` [CBK037494], the “% of control remaining” value is 96.6619.

For the compound `Cc1cc(C)c2c(n1)oc1c(NC(C)C)ncnc12` [CBK287917], the “% of control remaining” value turned out to be 75.8616.

With `CCOC(=O)C1(Cc2cc(-c3ccccc3)no2)CCCNC1` (stereo not shown) [CBK284583], the “% of control remaining” value was 66.2195.

For `OC(CCNC1CCCCC1)(c1ccccc1)c1ccccc1` [CBK013339], the “% of control remaining” value was determined as 64.9448.

In the case of `O=C(COc1ccc(C2CCCCC2)cc1)Nc1cccc(-c2nc3ncccc3o2)c1` [CBK264569], the “% of control remaining” value came to 119.879.

Regarding `Cn1cc(CCC(=O)N2CCN(Cc3ccccn3)CC2)cn1` [CBK305094], the “% of control remaining” value was 38.9897.

`Clc1ccccc1COc1cccc(/C=N/Nc2nc(N3CCCC3)nc(N3CCCC3)n2)c1` [CBK019076]: the “% of control remaining” value was found to be 85.0242.

As for `Cc1[nH]c2ccccc2c1-c1csc(-c2ccncc2)n1` [CBK264371], the “% of control remaining” value amounted to 95.8315.

As to `CC(C)(C)OC(=O)NCCNC(=O)Nc1ccccc1C(F)(F)F` [CBK056940], the “% of control remaining” value was determined as 126.449.

Consider `O=[N+]([O-])c1cc(F)ccc1Oc1cccc(C(F)(F)F)c1` [CBK002802], for which the “% of control remaining” value came to 17.3616.

For `Cc1ccc(C(=O)NCCNC(=O)CN2CCCC2)cc1` [CBK264103], the “% of control remaining” value amounted to 96.2575.

With `CCOC(=O)N1CCC(NC(=O)N(CCN(C)C)Cc2ccccc2)CC1` [CBK155121], the “% of control remaining” value was 90.2912.

With `S=C1NCN(Cc2ccc3c(c2)OCO3)CN1` [CBK267899], the “% of control remaining” value came to 98.3924.

`CC(C)C(=O)Nc1cc2cccnc2c(-c2ccsc2)n1` [CBK081259]: the “% of control remaining” value was determined as 99.3184.

For the compound `CCn1c2cc(C)sc2c2cnn(CC(=O)NC(C)(C)C)c(=O)c21` [CBK284152], the “% of control remaining” value came out at 85.8365.

`O=C(c1cc(-c2ccc(Cl)cc2)nc2ccccc12)n1nnc2ccccc21` [CBK264640]: the “% of control remaining” value is given as 98.0106.

Regarding `CNC(=O)c1ccc(NC(=O)CC(C)(C)CC(=O)O)cc1` [CBK296615], the “% of control remaining” value is 97.7066.

Regarding `CCCCC(=O)N(C)c1c(C)nc2ccc(C(=O)Nc3ccc(C(N)=O)cc3)cn12` [CBK147066], the “% of control remaining” value was 77.6577.

As for `Cc1ccc(OCC(=O)Nc2sc3c(c2C#N)CCCC3)cc1` [CBK263548], the “% of control remaining” value is given as 98.8564.

In the case of `COC(=O)c1c(NS(=O)(=O)c2cccc(Cl)c2)csc1C` [CBK026678], the “% of control remaining” value is reported as 107.414.

On to `Cn1c(CNC(=O)c2ccc(Cl)cc2)nnc1SCC(=O)c1ccc(Br)cc1` [CBK266145], for which the “% of control remaining” value is 119.398.

With `O=C(C1c2ccccc2Oc2ccccc21)N1C2CCC1CC(O)(c1ccco1)C2` (stereo not shown) [CBK286169], the “% of control remaining” value was found to be 81.3428.

With `CCS(=O)(=O)N1C2CCC(C2)[C@H]1COc1ccc(F)cc1` (stereo partly shown) [CBK285280], the “% of control remaining” value worked out at 74.9773.

`O=C(O)c1cccc(-c2cncc(NCCCN3CCOCC3)n2)c1` [CBK037850]: the “% of control remaining” value was 95.9825.

With `O=C(Nc1ccc(N2CCN(Cc3ccccc3)CC2)cc1)c1nc[nH]n1` [CBK266960], the “% of control remaining” value was 77.0113.

For the compound `Nc1nonc1-n1cc(CN2CCCCC2)nn1` [CBK307044], the “% of control remaining” value is 20.5281.

Regarding `C=CCn1c(SCC(=O)Nc2cccc(C(F)(F)F)c2)nnc1C12CC3CC(CC(C3)C1)C2` [CBK266054], the “% of control remaining” value is listed as 88.3587.

As to `OCCCc1nc2ccccc2n1CCOc1ccccc1` [CBK297728], the “% of control remaining” value was found to be 91.9052.

As to `COc1ccc(C(=O)Nc2ccccc2C(=O)Nc2cccc([N+](=O)[O-])c2)cc1` [CBK265894], the “% of control remaining” value came out at 105.089.

In the case of `CC1CN(C(=O)CCn2c(C(F)F)cc3cccnc32)CC(C)O1` (stereo not shown) [CBK284984], the “% of control remaining” value is reported as 130.665.

In the case of `Cc1cccc2cc3c(nc12)OCCN(C)C3` [CBK285192], the “% of control remaining” value is reported as 108.301.

For the compound `Cc1cc(COc2ccnc(N3CCCN(CCCC#N)CC3)n2)no1` [CBK084144], the “% of control remaining” value was 93.4199.

Take `CC(C(=O)N1CCCC(COc2ccc(F)cc2)C1)n1ccnc1` (stereo not shown) [CBK282027]: the “% of control remaining” value is 85.082.

In the case of `Cc1ccccc1OCC(=O)Nc1ccc(C(=O)O)c(Cl)c1` [CBK287027], the “% of control remaining” value is on record as 102.158.

`CN(C(=O)CN1CCN(c2cc(-c3cccc4oc5ccccc5c34)ncn2)CC1)c1ccccc1` [CBK091130]: the “% of control remaining” value is 141.279.

As to `CC(C)C(=O)Nc1cc2ccccc2c(-c2cccc(C(F)(F)F)c2)n1` [CBK085738], the “% of control remaining” value is on record as 72.4497.

As to `CN1CCN(S(=O)(=O)c2ccc(Oc3ccccc3)cc2)CC1` [CBK062430], the “% of control remaining” value came to 110.229.

Take `CN1CCCN(c2cncc(-c3cccc(OC(F)(F)F)c3)n2)CC1` [CBK065949]: the “% of control remaining” value was 69.293.

`O=C(NCC1CCCCC1)C1(Cc2cccc(-c3cccnc3)c2)CCOCC1` [CBK285607]: the “% of control remaining” value is on record as 105.53.

Regarding `O=C(Nc1cccc(Cl)c1)N(Cc1ccncc1)CC1CCCO1` (stereo not shown) [CBK305362], the “% of control remaining” value is given as 105.628.

In the case of `Cc1nc(SCC(=O)NCC2CCCOC2)oc1C` (stereo not shown) [CBK282195], the “% of control remaining” value was found to be 98.5637.

For the compound `COc1ccc(S(=O)(=O)N(C)CC(=O)Nc2cccc(F)c2)cc1Cl` [CBK267882], the “% of control remaining” value was determined as 96.3132.

Turning to `CNC(=S)N1CCN(c2nccnc2NS(=O)(=O)C2CC2)CC1` [CBK048905], the “% of control remaining” value is reported as 73.5251.

Regarding `CC(=O)NC[C@H]1CN(c2ccc(C3CNC3)c(F)c2)C(=O)O1` [CBK013035], the “% of control remaining” value stood at 43.8494.

With `Cc1ccccc1OCCCn1cncc1-c1cnn(C)c1` [CBK281762], the “% of control remaining” value amounted to 89.8962.

Take `Cn1cc(C2c3ccccc3C(=O)N2CC(=O)O)c2ccccc21` (stereo not shown) [CBK286555]: the “% of control remaining” value is listed as 89.2564.

Consider `CCCCCSc1c(C#N)nc(N2CCOCC2)c2c1CC(C)(C)OC2` [CBK021748], for which the “% of control remaining” value was 69.2741.

As for `CCOc1ccc(NC(=O)C2C3c4ccccc4C(c4ccccc43)C2C(=O)O)cc1` (stereo not shown) [CBK261544], the “% of control remaining” value is on record as 110.35.

For `COc1cccc2cc(C(=O)C3=C(O)C(=O)N(CCN4CCOCC4)C3c3cccc(Cl)c3)oc12` (stereo not shown) [CBK266599], the “% of control remaining” value is 107.439.

For the compound `COc1ccc2nc(Nc3nc4c(s3)C(=O)CC(C)(C)C4)sc2c1` [CBK287481], the “% of control remaining” value turned out to be 113.86.

As for `CC(C)(C)OC(=O)Nc1ccc(Nc2cc(-c3ccc(F)c(F)c3)ncn2)cc1` [CBK091143], the “% of control remaining” value is given as 126.956.

For `C=CCNc1nccnc1-c1ccc(CO)cc1` [CBK036870], the “% of control remaining” value is 95.5817.

As to `CC(=O)c1cc(C(=O)NC(c2ccccc2)c2cccnc2)cs1` (stereo not shown) [CBK282514], the “% of control remaining” value came out at 118.339.

Turning to `CC(C)c1nc(CCN(C)C(=O)NCc2cc(-c3ccco3)on2)no1` [CBK307443], the “% of control remaining” value was determined as 108.074.

Regarding `CC(NS(=O)(=O)N(C)C)c1ccccc1` (stereo not shown) [CBK263819], the “% of control remaining” value turned out to be 49.839.

Turning to `O=C(Cc1nnn[nH]1)N1CCC(Cn2cncn2)(C2CCCCC2)CC1` [CBK136796], the “% of control remaining” value was 94.0488.

As to `CN(CC(=O)NCc1ccco1)C1CCCCC1` [CBK304471], the “% of control remaining” value was 60.4105.

Consider `Cc1nc(C2CC(O)C2)cc(N(C)CCOc2cccc(Cl)c2)n1` (stereo not shown) [CBK307691], for which the “% of control remaining” value came to 102.95.

For the compound `O=C(O)c1ccccc1C(=O)NCCC1=CCCCC1` [CBK287113], the “% of control remaining” value was 96.812.

Take `O=C1CSC(c2ccc(F)cc2Cl)c2c[nH]nc2N1` (stereo not shown) [CBK287935]: the “% of control remaining” value is given as 55.7336.

For `NNC(=O)c1c(NC(=O)c2ccccc2)sc2c1CCC2` [CBK262516], the “% of control remaining” value was determined as 125.916.

As for `CCN(CC)Cc1c(O)ccc2c(C#N)c(C)n(-c3ccccc3)c12` [CBK261527C], the “% of control remaining” value was 89.4949.

For the compound `CN(C)CCNC(=O)c1cc(-c2cccnc2)nc2c(Cl)cccc12` [CBK267761], the “% of control remaining” value is recorded as 87.6023.

As to `Fc1ccc2nc(Nc3nc(-c4ccncc4)cs3)sc2c1` [CBK287487], the “% of control remaining” value was determined as 104.31.

For the compound `Nc1ccc2c(-c3ccsc3)ccnc2n1` [CBK067637], the “% of control remaining” value amounted to 50.7059.

`COc1cccc2cc(C3CN(C(=O)C(C)(C)NC(=O)OC(C)(C)C)CC3C(=O)O)oc12` (stereo not shown) [CBK001348]: the “% of control remaining” value came to 60.73.

Turning to `O=CN1CCc2c([nH]c3ccccc23)C12CCN(CC1CC1)CC2` [CBK040315], the “% of control remaining” value came to 101.552.

For the compound `NC(=O)C1(Cc2ccc(-c3ccccc3)cc2)CCN(C(=O)c2ccccc2)CC1` [CBK285789], the “% of control remaining” value is listed as 95.734.

With `CC(Oc1ccccc1)C(=O)Nc1cccc(C#N)c1` (stereo not shown) [CBK264062], the “% of control remaining” value is 108.228.
